Measurements published in PubChem BioAssay AID602332 (National Center for Advancing Translational Sciences (NCATS), 2012).
About 75 (0.02%) of roughly 420,000 compounds were called active. This list was built around the results that the source calls inconclusive (neither active nor inactive); the mix of calls is not that of the screen. The call rests on the fitted dose curve; in most records, active means well fitted activation curve with a large enough effect; inconclusive means small, poorly fitted or top-dose-only effect; inactive means no such curve, though single readings can be large or run the other way. Where the call is inconclusive, the potency comes from a doubtful curve fit.

Experiment: qHTS for Inducers of the Endoplasmic Reticulum Stress Response (ERSR) in Human Glioma: qHTS; further: nearly all actives have a fitted effect of over 35% in size; on activation: % of control where 0% means no effect
Conditions: U87-MG GRP78 promoter luciferase reporter, 16 h; activation: hits give high values
How it was run: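 Stably transfected U87-MG human glioma cells carrying a GRP78-based luminescent sensor were seeded at 1000 cells/well, pin-dosed with compounds and incubated 16 h. Luciferase reagent was then added, and end-point luminescence was read after 10 min at room temperature.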
Potency means the concentration at half of the fitted maximal effect; tags describe the fitted curve by direction and shape.

activation, inactive:
COCCn1c(=S)[nH]c2sc3c(c2c1=O)CCC(C)C3 (stereo not given) 2.66%
Cc1ccc(-c2ccc(SCC(=O)NC3CCCC3)nn2)cc1 4.84%
Cc1cc(C)c(COc2ccc(/C=N/n3c(C)n[nH]c3=S)cc2)c(C)c1 5.58%
O=c1cc(-c2ccc(C3CCCCC3)cc2)[nH][nH]1 -3.25%
CSc1ncnc2c1ncn2CCCN1CCN(c2ncccn2)CC1 1.43%
COc1ccc(S(=O)(=O)N2CCOCC2)cc1NC(=O)CN1CCC(Cc2ccccc2)CC1 -5.77%
Cc1c(O)c2c(c(C(=O)/C=C/c3ccccc3)c1O)OC(C)(C)C=C2 -3.1%
CCN(CC)c1ccc(NC(=O)/C=C\c2ccccc2Cl)cc1 4.66%
CC(C)CC(=O)Nc1sc2c(c1C(=O)O)CCCCC2 -0.59%
Cc1ccc(N2CCN(S(=O)(=O)c3ccc(F)c(C)c3)CC2)c(C)c1 -5.07%
COc1ccccc1C(=O)NNC(=O)c1cccc(C)c1 -5.66%
O=C(NCc1cccc(Cl)c1)C1Cc2c(-c3cccc(F)c3)ccnc2O1 (stereo not given) -2.79%
COc1ccc(C(=S)N2CCN(c3ccccc3Cl)CC2)cc1OC -4.83%
COc1cccc(NC(=O)COc2ccccc2)c1 5.75%
O=C(NNS(=O)(=O)c1ccc(Cl)cc1)c1sccc1-n1cccc1 -3.27%
O=C(CSc1nnc(Nc2ccccc2F)s1)c1cc2ccccc2o1 7.38%
O=c1c2ccccc2sc2ccc(C#CC3(O)CCCCC3)cc12 -10.9%
COCCn1c(-c2ccc(OC(F)(F)C(F)C(F)(F)F)cc2)nc2c1c(=O)[nH]c(=O)n2CC(C)C (stereo not given) -6.55%
OCCCn1c(-c2ccc(F)cc2)csc1=Nc1ccc(F)cc1 -1.7%
COc1ccc2cc(CCNC(=O)CCc3ccccc3)c(=O)[nH]c2c1 -4.61%

Potency, inconclusive:
O=C(NNc1ccccc1Cl)C(O)(c1cccc(C(F)(F)F)c1)c1cccc(C(F)(F)F)c1 44.7 µM [activator, single point]
Cc1ccc(O)c(C(=O)/C=C/c2ccc3c(c2)OCCCO3)c1 50.1 µM [activator, partial curve, poor fit]
Cc1c(C(C)(C)C)sc(=NC(=O)c2ccccc2O)n1C 28.2 µM [activator, partial curve, poor fit]
Nc1c(C(=O)Nc2ccccc2Br)sc2nc(-c3cccs3)ccc12 44.7 µM [activator, partial curve, poor fit]
Cc1ccc(N/C=C2\CCCCC2=O)nc1 70.8 µM [activator, single point]
Cc1ccccc1C(=O)NNS(=O)(=O)c1ccc(F)cc1 28.2 µM [activator, single point]
c1ccc(Cn2ccnc2-c2ccco2)cc1 25.1 µM [activator, full curve, poor fit]
COc1cc(SC)ccc1C(=O)NCCc1c[nH]c2ccccc12 31.6 µM [activator, partial curve, poor fit]
COc1cccc(C(C(=O)NCC2CCCO2)N(CC2CCCO2)C(=O)CN2C(=O)c3ccccc3S2(=O)=O)c1 (stereo not given) 70.8 µM [activator, single point]
COc1ccc(/C=C/C(=O)NC(=S)NNC(=O)Cc2cccs2)cc1 12.6 µM [activator, single point]
CN(C)CCNC(=O)c1cccc2[nH]c(-c3ccncc3)nc12 50.1 µM [activator, single point]
CCC(=O)NCc1ccc(-c2nc3ncccc3o2)cc1 28.2 µM [activator, single point]
CCOC(=O)c1ccc(N=c2sc(C(=O)OC)cc(=O)n2CCCN2CCOCC2)cc1 50.1 µM [activator, single point]
O=C(c1ccc(COc2ccc(Cl)cc2Cl)o1)N1CCCC1 28.2 µM [activator, single point]
O=C(Nc1ccc(S(=O)(=O)N2CCOCC2)cc1)c1cc([N+](=O)[O-])ccc1Cl 44.7 µM [activator, partial curve, poor fit]
CCSc1ccccc1C(=O)Nc1ccc(-c2nc3ccccc3s2)c(O)c1 39.8 µM [activator, partial curve, poor fit]
NC(=S)N/N=C/c1ncc(C(F)(F)F)cc1Cl 50.1 µM [activator, single point]
Fc1ccc2nc(Nc3nc4cc5c(cc4s3)OCO5)sc2c1 17.8 µM [activator, full curve, poor fit]
COc1cc(CNc2ccc3[nH]c(=O)[nH]c3c2)ccc1OCc1ccc(Cl)cc1 7.08 µM [activator, partial curve, poor fit]
CCOC(=O)C(Cc1c[nH]c2ccccc12)NC(=O)COc1ccc(CC)cc1 (stereo not given) 44.7 µM [activator, single point]
COc1ccc(NC(=O)c2ccc([N+](=O)[O-])o2)cc1 14.1 µM [activator, single point]
C/C(=N\NC(=O)C1CC1)c1ccc(Cl)cc1 28.2 µM [activator, single point]
Cn1ccsc1=NC(=O)c1ccc(S(C)(=O)=O)c([N+](=O)[O-])c1 28.2 µM [activator, single point]
O=C1CCSC2(C(=O)N(Cc3ccc(F)cc3)c3ccccc32)N1c1ccc(Cl)cc1 (stereo not given) 44.7 µM [activator, single point]
Cc1c(N2C(=O)/C(=C\C3CC=CCC3)SC2=S)c(=O)n(-c2ccccc2)n1C (stereo not given) 44.7 µM [activator, single point]
